Among all 310,000 compounds or so, about 2,200 (0.71%) showed an effect of 50% or more. Effects have a minus sign here. The list shows a part of the results.

Chain of human ether-à-go-go-related gene (hERG) potassium channel (Q12809 whole entry, looked up): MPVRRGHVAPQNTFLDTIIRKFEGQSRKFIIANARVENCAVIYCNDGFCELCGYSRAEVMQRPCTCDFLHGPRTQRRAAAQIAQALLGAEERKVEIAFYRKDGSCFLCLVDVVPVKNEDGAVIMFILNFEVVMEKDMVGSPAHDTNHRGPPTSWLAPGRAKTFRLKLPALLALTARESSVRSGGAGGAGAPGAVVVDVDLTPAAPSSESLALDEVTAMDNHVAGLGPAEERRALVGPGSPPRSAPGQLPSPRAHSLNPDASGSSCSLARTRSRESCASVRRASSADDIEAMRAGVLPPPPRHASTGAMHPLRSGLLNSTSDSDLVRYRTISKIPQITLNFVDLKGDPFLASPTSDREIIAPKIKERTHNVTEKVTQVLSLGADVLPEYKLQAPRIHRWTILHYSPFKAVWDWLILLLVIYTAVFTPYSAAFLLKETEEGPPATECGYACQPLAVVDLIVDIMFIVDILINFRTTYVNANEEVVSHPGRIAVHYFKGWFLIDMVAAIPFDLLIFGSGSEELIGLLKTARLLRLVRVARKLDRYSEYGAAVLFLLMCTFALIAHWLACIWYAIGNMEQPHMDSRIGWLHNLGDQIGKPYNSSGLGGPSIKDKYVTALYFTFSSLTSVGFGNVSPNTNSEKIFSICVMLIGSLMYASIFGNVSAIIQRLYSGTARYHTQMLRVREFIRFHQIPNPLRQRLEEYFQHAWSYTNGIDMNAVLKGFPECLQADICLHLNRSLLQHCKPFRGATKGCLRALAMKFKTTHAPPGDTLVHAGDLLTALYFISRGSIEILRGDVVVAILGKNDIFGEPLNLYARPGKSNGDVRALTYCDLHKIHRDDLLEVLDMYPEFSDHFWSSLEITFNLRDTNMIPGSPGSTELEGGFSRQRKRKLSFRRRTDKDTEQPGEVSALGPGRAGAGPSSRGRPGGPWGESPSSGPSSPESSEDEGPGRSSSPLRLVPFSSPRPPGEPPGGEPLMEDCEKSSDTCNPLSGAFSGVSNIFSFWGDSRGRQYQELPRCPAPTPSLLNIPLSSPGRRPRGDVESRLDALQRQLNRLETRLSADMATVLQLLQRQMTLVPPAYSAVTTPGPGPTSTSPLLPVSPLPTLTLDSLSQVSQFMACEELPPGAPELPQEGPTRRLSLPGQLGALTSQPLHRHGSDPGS

The test has as its target human ether-à-go-go-related gene (hERG) potassium channel (human, UniProt Q12809). Nature of the test: primary screen, population patch clamp on CHO cells stably expressing hERG.
`Cn1ncc(Cl)c1C(=O)N1CCN(S(=O)(=O)c2ccc(Cl)s2)CC1`: the “hERG current change (%, negative = inhibition) at 1uM” value is reported as -6.93%.
The result for `Cl.O=C(CN1CCN(C2CCCCC2)CC1)Nc1ccccc1N1CCCCC1` reads -44.2%.
The result for `CNC(=O)CCCCC(=O)N/N=C/c1ccc(Cl)cc1Cl` reads 11.4%; that for `COC(=O)c1[nH]c2ccc(C)cc2c1NC(=O)CN1CCc2cc(OC)c(OC)cc2C1`, 11.3%.
As for `Cc1ccc(OCC(=O)OC2CCCN(C)C2)cc1.Cl` (stereo not drawn), the “hERG current change (%, negative = inhibition) at 1uM” value is on record as 13.9%.
The result for `CCOC(=O)[C@H]1[C@H]2COc3ccc(C)cc3[C@@H]2N2C(=O)CN(Cc3ccc(F)cc3)C(=O)[C@@]12C` reads 8.22%.
The result for `CC(=O)N1CCN(C23CC4CC(CC(C4)C2)C3)CC1` reads 11.9%; that for `O=C(CCN1CCN(c2ccc(Cl)cc2)CC1)Nc1nccs1`, 8.13%.
The result for `COc1ccccc1C(=O)NC(=O)CSc1nnc(C)s1` reads 14.5%; that for `CC(=O)N(C(C)=O)n1c(/C=C/c2ccc([N+](=O)[O-])cc2)nc2ccccc2c1=O`, 3.69%; that for `CCOc1ccc2nc(N3CCC(C(=O)N4CCC5(CC4)OCCO5)CC3)sc2c1`, 6.77%.
Turning to `CC1(C)Oc2ccc3ccc(=O)oc3c2/C(=C/Nc2ccc(O)cc2)C1=O`, the “hERG current change (%, negative = inhibition) at 1uM” value came out at 17.9%.
The result for `CCCCOc1ccc(-c2nnn(CCC(=O)N3CCOCC3)n2)cc1` reads -3.44%; that for `CCN(CC)C(=O)N1c2ccccc2Sc2ccccc21`, 6.83%.
The result for `N#CC(c1ccccc1F)(c1ncc(C(F)(F)F)cc1Cl)N1CCOCC1` (stereo not drawn) reads -4.1%; that for `COC(=O)c1c(NC(=O)C(=O)N2CCOCC2)sc2c1CCC2`, 23.2%.
The result for `COc1ccc(NC(=O)c2csc(Cc3ccc(Cl)cc3)n2)cc1` reads 12.8%.
Regarding `CCC1CCCCN1C(=O)CSc1nc2c(c(=O)n(C)c(=O)n2C)n1C` (stereo not drawn), the “hERG current change (%, negative = inhibition) at 1uM” value came to 3.72%.
The result for `NNC(=O)c1ccc(COc2ccc3c(c2)CCC3)cc1` reads 5.57%; that for `CC(C)n1c(NCc2cccs2)nc2ccccc21`, -1.27%; that for `CC(=Nc1ccccc1C)C1=C(O)CSC1=O`, 4.34%.
The result for `Cc1cccc(OC(C)C(=O)N/N=C\c2ccncc2)c1` (stereo not drawn) reads 15.5%.
The result for `CCC(C)NC(=O)CCc1c(C)nc2nc(-c3cc(OC)cc(OC)c3)nn2c1C` (stereo not drawn) reads -4.72%; that for `Cc1cccc(C)c1NC(=O)NN1C(C)CCCC1C` (stereo not drawn), 12%; that for `COc1ccc(S(=O)(=O)N2CCCCCC2)cc1C(=O)N(C)Cc1cccc(OC)c1OC`, 0.302%.
In the case of `Cc1cc(C)cc(NC(=O)COc2coc(CN3CCc4ccccc4C3)cc2=O)c1`, the “hERG current change (%, negative = inhibition) at 1uM” value is 5.39%.
With `CCOc1ccc(/C=C2/Sc3ccc(C(=O)N4CCOCC4)cc3N(C)C2=O)cc1OC`, the “hERG current change (%, negative = inhibition) at 1uM” value was determined as 10.9%.
The result for `NC(=O)c1ccc(Oc2ccc(-c3nnco3)cc2)c([N+](=O)[O-])c1` reads 13.4%; that for `CCN1CCN(C(=O)c2cc(=O)c3cc(C)ccc3o2)CC1`, 6.16%; that for `O=C(Nc1nc(-c2cccc([N+](=O)[O-])c2)cs1)C(c1ccccc1)c1ccccc1`, 15.3%.
Consider `Cc1ccccc1NC(=O)Nc1ccc2c(c1)OCO2`, for which the “hERG current change (%, negative = inhibition) at 1uM” value turned out to be 3.69%.
As for `Nc1ccc2nn(-c3ccc(Cl)cc3)nc2c1`, the “hERG current change (%, negative = inhibition) at 1uM” value turned out to be 0.522%.
The result for `C/C(=N\NC(=O)c1cccc(S(=O)(=O)N2CCOCC2)c1)c1ccc(OCC(=O)N(C)C)cc1` reads 19.3%.
The result for `COc1ccc(/C=N/NS(=O)(=O)c2ccc(C)cc2)cc1OC(=O)c1ccccc1` reads 5.96%.
For `COc1cccc(C(=O)NN2CC(O)=C(c3nc4ccccc4s3)C2=N)c1`, the “hERG current change (%, negative = inhibition) at 1uM” value is 20.9%.
The result for `COc1ccc2nc(N(Cc3ccccc3)C(=O)CCNC(C)=O)sc2c1` reads 7.46%; that for `COc1ccccc1Nc1nc2c(C)cccc2cc1C#N`, 0.996%; that for `Cc1ccc(S(=O)(=O)c2cc3c(=O)n4cccc(C)c4nc3n(CC3CCCO3)c2=N)cc1C` (stereo not drawn), 12.9%.
The result for `CCOc1ccc(NC(=O)CN2C(=O)NC(C)(c3ccc(OC(F)F)cc3)C2=O)cc1` (stereo not drawn) reads 6.18%; that for `CCOC(=O)Nc1ccc2c(COC(=O)CNS(=O)(=O)c3cccc(Br)c3)cc(=O)oc2c1`, 12.8%; that for `CCCn1c(CCc2ccccc2)n[nH]c1=S`, 4.75%.
The result for `CCCN(CC(=O)Nc1ccccc1OC)C(=O)CCCN1C(=O)c2ccccc2C1=O` reads 1.67%; that for `O=C(Cn1cnc2sc(-c3ccccc3)cc2c1=O)NCc1ccccc1`, 9.67%; that for `CCOC(=O)c1cc(C(=O)Nc2sc3c(c2C#N)CCCC3)nn1C`, 15.1%.
On to `C=CCn1c(=S)[nH]c2cc(C(=O)Nc3ccc(F)cc3)ccc2c1=O`, for which the “hERG current change (%, negative = inhibition) at 1uM” value is 7.97%.
The result for `Cc1cc(NC(=O)CCN2CCN(C)CC2)ccc1Br.Cl` reads 2.11%; that for `Cc1oc(-c2ccccc2Cl)nc1CS(=O)CC(=O)NCc1ccc(Cl)cc1` (stereo not drawn), 0.0397%; that for `CN(C)c1ccc(/C=N/NC(=O)CN(c2cccc(Cl)c2)S(C)(=O)=O)cc1Br`, 11.9%.
The result for `O=C1CN(C(=O)CNC(=O)c2ccc(Cl)cc2Cl)CCN1` reads 10.9%; that for `CSCCC(NC(=O)COc1ccccc1)C(=O)OCCOc1ccc(Br)cc1` (stereo not drawn), -3.38%.
As for `COC(=O)c1ccc(COc2ccc(/C=N/O)cc2OC)o1`, the “hERG current change (%, negative = inhibition) at 1uM” value came to 14.5%.
The result for `O=C(c1ccccc1)c1nnc(-c2ccncc2)o1` reads 3.87%.
Take `N#Cc1cn(CC(=O)N2CCCC2)c2ccccc12`: the “hERG current change (%, negative = inhibition) at 1uM” value amounted to 12.1%.
The result for `Cc1cccc(C(=O)N(Cc2nc3ccccc3c(=O)[nH]2)C2CCCCC2)c1` reads 3.32%.
The result for `CCOc1ccc(/C=N/NC(=O)c2nnn(-c3nonc3N)c2CN2CCC(C)CC2)cc1` reads 4.5%; that for `CCC(Oc1ccc(Cl)cc1)C(=O)N1CC(=O)Nc2ccccc21` (stereo not drawn), 7.39%; that for `COc1ccc(C(=O)NC2CC2)cc1OC1CCN(Cc2ccc(F)cc2F)CC1`, -75.1%.
The result for `CS(=O)(=O)N1CCC(NC(=O)Cc2ccccc2)CC1` reads 13.2%.
As for `Cc1ccc2cc(/C=C3\N=C(c4ccccc4)OC3=O)c(N3CCOCC3)nc2c1`, the “hERG current change (%, negative = inhibition) at 1uM” value is 14.5%.
The result for `CCCCC1=CC2=C(c3ccco3)C(=O)C(C)(OC(=O)c3ccc(OC)cc3)C(=O)C2=CN1c1ccc(OC)cc1` (stereo not drawn) reads 16%; that for `COc1ccc(CCNC(=S)N2CCN(S(=O)(=O)c3ccc(F)cc3)CC2)cc1`, -2.8%.
The result for `COc1ccc(CNCc2cccn2C)cc1.Cl` reads 6.67%; that for `CCN(CC(=O)NCc1cccs1)C(=O)/C=C/c1cccc(OC)c1OC`, 5.63%; that for `O=C(O)C1CCCN(C(=O)c2cccc3ccccc23)C1` (stereo not drawn), 8.46%.
The result for `CC(=O)c1cc(CN2CCC(n3nccc3NC(=O)c3ccccc3)CC2)cs1` reads -1.13%.
Regarding `CC(C)(C)NS(=O)(=O)c1ccc(C(=O)Nc2ccc3c(c2)OCO3)cc1`, the “hERG current change (%, negative = inhibition) at 1uM” value was 10.4%.
The result for `COc1ccc(C2(c3ccc(OC)cc3)NC(=O)N(CC(=O)NCC(C)c3ccccc3)C2=O)cc1` (stereo not drawn) reads 9.44%.
The result for `COc1cccc(C(c2sc3nc(C)nn3c2O)N2CCN(c3ccccc3F)CC2)c1` (stereo not drawn) reads 10%.
As to `CCOC(=O)N1CCN(c2nc3ccccn3c(=O)c2C=O)CC1`, the “hERG current change (%, negative = inhibition) at 1uM” value came out at 5.93%.
The result for `CC(CN1CCCC1)OC(=O)c1ccc(F)cc1.Cl` (stereo not drawn) reads 9.21%.
Turning to `O=C(OCC#CCSc1nnc(-c2ccccc2)o1)c1cc2ccccc2o1`, the “hERG current change (%, negative = inhibition) at 1uM” value is on record as 8.81%.
Turning to `O=C1c2ccccc2NC(c2ccccn2)N1NS(=O)(=O)c1ccccc1` (stereo not drawn), the “hERG current change (%, negative = inhibition) at 1uM” value worked out at 11.3%.
The result for `CC(=O)O/N=C(\N)c1cnn2c(C(F)(F)F)cc(C(F)(F)F)nc12` reads 13.1%; that for `COc1ccccc1-n1c(SCC(=O)Nc2ccc(Br)cc2)nc(O)cc1=O`, 14%.
The result for `CCOC(=O)N1CCN(C(=O)C(CC(C)C)NS(=O)(=O)c2ccc(C)cc2)CC1` (stereo not drawn) reads 8.49%.
The result for `CCCOc1ccc(Cc2nn3c(=O)/c(=C/c4ccco4)sc3nc2=O)cc1` reads 20.3%.
Take `Cc1cccnc1NC(=S)NCCc1ccccc1`: the “hERG current change (%, negative = inhibition) at 1uM” value was -3.36%.
The result for `C/C(=N\NC(N)=O)c1ccc(-n2ccnc2)cc1` reads 16%; that for `CCOC(=O)c1ccc(Nc2cc(C)nc(N3CCOCC3)n2)cc1`, 6.05%; that for `COc1ccc2nc(NC(=O)CN3C(=O)NC4(CCCC4)C3=O)sc2c1`, 10%.
The result for `CCOc1ccccc1NC(=O)c1cc(-c2ccccn2)nc2ccccc12` reads 11%.
The result for `COc1ccc(NC(=O)CCCC(=O)OCC(F)(F)C(F)F)cc1` reads -14.7%; that for `O=C(CN1CCN(S(=O)(=O)c2ccc(F)cc2)CC1)c1ccc(O)c(O)c1`, -6.92%.
As for `COc1cccc(NC(=S)N(Cc2ccc(C)cc2)Cc2ccccn2)c1`, the “hERG current change (%, negative = inhibition) at 1uM” value worked out at 0.185%.
The result for `C=C(C)COc1ccc(-c2[nH]ncc2-c2ccc(Br)cc2)c(O)c1` reads 9.7%.
The result for `Cc1cc(C)n(Cc2ccc(C(=O)Nc3cccc(Br)c3)o2)n1` reads 6.9%; that for `Cn1c(=O)[nH]c(=O)c2c1nc(NCc1ccccc1)n2Cc1ccc(F)cc1`, 9.27%.

Values taken from publication PMC4336329 (PLoS ONE, 2015).
